# Measurements taken from the supplement of paper PMC8728848.
# The list shows a part of the results.
# B1: CC1G-11630 (Coprinopsis cinerea), A8P462 (protein)
# chain: MTTEAKIKLKAVVYWELVFDYDNSSNTGEITQSYTVKISQTSTRSTFASEVSTTTIDTLTKNNQEVDVGASYGAISANVSASWEHSEEVNNMLEKTTQTSTEDTYTVETEETRSYTIGPGGMLSLFQKHFSGPGMHVAFDVFTTDLELAKERTEIDIDVDVEAIRFVREIRVVYTDIMSEAPGDHVREINGKNPDINYGFNGKFVWLVPEQTRKTAQALTNVEFVSQAESDDRYWDLAAGAGGSNRYLIPVYDTNNKDKIYELALWRSDSYITHDKVKAAGWSGTTGDINSGRGGTYLNLVWKTRHAY
# Legend:
# Experiment in all cases: glycan array binding signal (z-score within array); higher = stronger binding
# Details in all cases: glycan notation: IUPAC condensed, linker removed
# [1] = target: Neu5Ac(a2-3)Gal(b1-4)GlcNAc(b1-3)Gal(b1-4)GlcNAc(b1-2)Man(a1-3)[Neu5Ac(a2-3)Gal(b1-4)GlcNAc(b1-3)Gal(b1-4)GlcNAc(b1-2)Man(a1-6)]Man(b1-4)GlcNAc(b1-4)GlcNAc
# In short: (§1)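 Glycan array binding is given as a within-array Z-score, which can be read as non-binding when negative. The arrays, 3228 of them, came from the Consortium for Functional Glycomics database and were retained only where the protein sequence was available. Z-scores were averaged across arrays of the same protein sequence at different concentrations or buffers and across linkers.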
# [2] = target: Neu5Ac(a2-3)Gal(b1-4)GlcNAc(b1-3)Gal(b1-4)GlcNAc(b1-3)Gal(b1-4)GlcNAc
# In short: as §1
# [3] = target: Neu5Ac(a2-3)Gal(b1-4)GlcNAc(b1-3)Gal(b1-4)GlcNAc(b1-3)Gal(b1-4)GlcNAc(b1-2)Man(a1-3)[Neu5Ac(a2-3)Gal(b1-4)GlcNAc(b1-3)Gal(b1-4)GlcNAc(b1-3)Gal(b1-4)GlcNAc(b1-2)Man(a1-6)]GalNAc
# In short: as §1
# [4] = target: Neu5Ac(a2-3)Gal(b1-4)GlcNAc(b1-3)Gal(b1-4)GlcNAc(b1-3)GalNAc
# In short: as §1
# [5] = target: Neu5Ac(a2-3)Gal(b1-4)GlcNAc(b1-3)Gal(b1-4)GlcNAc(b1-3)[Neu5Ac(a2-3)Gal(b1-4)GlcNAc(b1-3)Gal(b1-4)GlcNAc(b1-6)]GalNAc
# In short: as §1
# [6] = target: Neu5Ac(a2-3)Gal(b1-4)GlcNAc(b1-3)Gal(b1-4)GlcNAc(b1-6)[Gal(b1-3)]GalNAc
# In short: as §1
# [7] = target: Neu5Ac(a2-3)Gal(b1-4)GlcNAc(b1-3)Gal(b1-4)[Fuc(a1-3)]GlcNAc
# In short: as §1
# [8] = target: Neu5Ac(a2-3)Gal(b1-4)GlcNAc(b1-3)GalNAc
# In short: as §1
# [9] = target: Neu5Ac(a2-3)Gal(b1-4)GlcNAc(b1-3)[Neu5Ac(a2-3)Gal(b1-4)GlcNAc(b1-6)]GalNAc
# In short: as §1
# [10] = target: Neu5Ac(a2-3)Gal(b1-4)GlcNAc(b1-6)GalNAc
# In short: as §1
# [11] = target: Neu5Ac(a2-3)Gal(b1-4)GlcNAc(b1-6)[Gal(b1-3)]GalNAc
# In short: as §1
# [12] = target: Neu5Ac(a2-3)Gal(b1-4)GlcNAc(b1-6)[Neu5Ac(a2-3)Gal(b1-3)]GalNAc
# In short: as §1
# [13] = target: Neu5Ac(a2-3)Gal(b1-4)GlcNAc6S
# In short: as §1
# [14] = target: Neu5Ac(a2-3)Gal(b1-4)[Fuc(a1-3)]GlcNAc
# In short: as §1
# [15] = target: Neu5Ac(a2-3)Gal(b1-4)[Fuc(a1-3)]GlcNAc(b1-2)Man
# In short: as §1
# [16] = target: Neu5Ac(a2-3)Gal(b1-4)[Fuc(a1-3)]GlcNAc(b1-3)Gal
# In short: as §1
# [17] = target: Neu5Ac(a2-3)Gal(b1-4)[Fuc(a1-3)]GlcNAc(b1-3)Gal(b1-4)GlcNAc
# In short: as §1
# [18] = target: Neu5Ac(a2-3)Gal(b1-4)[Fuc(a1-3)]GlcNAc(b1-3)Gal(b1-4)[Fuc(a1-3)]GlcNAc(b1-3)Gal(b1-4)[Fuc(a1-3)]GlcNAc
# In short: as §1
# [19] = target: Neu5Ac(a2-3)Gal(b1-4)[Fuc(a1-3)]GlcNAc(b1-3)GalNAc
# In short: as §1
# [20] = target: Neu5Ac(a2-3)Gal(b1-4)[Fuc(a1-3)]GlcNAc(b1-6)[Gal(b1-3)]GalNAc
# In short: as §1
# [21] = target: Neu5Ac(a2-3)Gal(b1-4)[Fuc(a1-3)]GlcNAc(b1-6)[Neu5Ac(a2-3)Gal(b1-3)]GalNAc
# In short: as §1
# [22] = target: Neu5Ac(a2-3)Gal(b1-4)[Fuc(a1-3)]GlcNAc6S
# In short: as §1
# [23] = target: Neu5Ac(a2-3)Gal6S(b1-4)GlcNAc
# In short: as §1
# [24] = target: Neu5Ac(a2-3)Gal6S(b1-4)[Fuc(a1-3)]GlcNAc
# In short: as §1
# Neu5Ac(a2-3)GalNAc = target: Neu5Ac(a2-3)GalNAc
# In short: as §1
# [25] = target: Neu5Ac(a2-3)GalNAc(b1-4)GlcNAc
# In short: as §1
# [26] = target: Neu5Ac(a2-3)[GalNAc(b1-4)]Gal(b1-4)Glc
# In short: as §1
# [27] = target: Neu5Ac(a2-3)[GalNAc(b1-4)]Gal(b1-4)GlcNAc
# In short: as §1
# [28] = target: Neu5Ac(a2-3)[GalNAc(b1-4)]Gal(b1-4)GlcNAc(b1-3)GalNAc
# In short: as §1
# [29] = target: Neu5Ac(a2-3)[Neu5Ac(a2-6)]GalNAc
# In short: as §1
# Neu5Ac(a2-6)Gal = target: Neu5Ac(a2-6)Gal
# In short: as §1
# [30] = target: Neu5Ac(a2-6)Gal(b1-3)GlcNAc(b1-3)[Gal(b1-4)GlcNAc(b1-6)]Gal(b1-4)Glc
# In short: as §1
# Neu5Ac(a2-6)Gal(b1-4)Glc = target: Neu5Ac(a2-6)Gal(b1-4)Glc
# In short: as §1
# [31] = target: Neu5Ac(a2-6)Gal(b1-4)GlcNAc
# In short: as §1
# [32] = target: Neu5Ac(a2-6)Gal(b1-4)GlcNAc(b1-2)Man
# In short: as §1
# [33] = target: Neu5Ac(a2-6)Gal(b1-4)GlcNAc(b1-2)Man(a1-3)Man(b1-4)GlcNAc(b1-4)GlcNAc
# In short: as §1
# [34] = target: Neu5Ac(a2-6)Gal(b1-4)GlcNAc(b1-2)Man(a1-3)[Gal(b1-4)GlcNAc(b1-2)Man(a1-6)]Man(b1-4)GlcNAc(b1-4)GlcNAc
# In short: as §1
# [35] = target: Neu5Ac(a2-6)Gal(b1-4)GlcNAc(b1-2)Man(a1-3)[GlcNAc(b1-2)Man(a1-6)]Man(b1-4)GlcNAc(b1-4)GlcNAc
# In short: as §1
binder,measurement,setting,value
B1,glycan array binding signal (z-score),[1],-0.324
same,glycan array binding signal (z-score),[2],-0.652
same,glycan array binding signal (z-score),[3],0.491
same,glycan array binding signal (z-score),[4],-0.506
same,glycan array binding signal (z-score),[5],-0.505
same,glycan array binding signal (z-score),[6],-0.21
same,glycan array binding signal (z-score),[7],0.194
same,glycan array binding signal (z-score),[8],-0.198
same,glycan array binding signal (z-score),[9],-0.172
same,glycan array binding signal (z-score),[10],0.067
same,glycan array binding signal (z-score),[11],-0.32
same,glycan array binding signal (z-score),[12],-0.48
same,glycan array binding signal (z-score),[13],0.608
same,glycan array binding signal (z-score),[14],-0.567
same,glycan array binding signal (z-score),[15],-0.525
same,glycan array binding signal (z-score),[16],-0.756
same,glycan array binding signal (z-score),[17],-0.297
same,glycan array binding signal (z-score),[18],-0.12
same,glycan array binding signal (z-score),[19],0.016
same,glycan array binding signal (z-score),[20],-0.426
same,glycan array binding signal (z-score),[21],0.186
same,glycan array binding signal (z-score),[22],0.397
same,glycan array binding signal (z-score),[23],0.182
same,glycan array binding signal (z-score),[24],-0.534
same,glycan array binding signal (z-score),Neu5Ac(a2-3)GalNAc,-0.176
same,glycan array binding signal (z-score),[25],-0.576
same,glycan array binding signal (z-score),[26],0.095
same,glycan array binding signal (z-score),[27],-0.277
same,glycan array binding signal (z-score),[28],0.016
same,glycan array binding signal (z-score),[29],0.098
same,glycan array binding signal (z-score),Neu5Ac(a2-6)Gal,-0.074
same,glycan array binding signal (z-score),[30],-0.542
same,glycan array binding signal (z-score),Neu5Ac(a2-6)Gal(b1-4)Glc,0.155
same,glycan array binding signal (z-score),[31],-0.215
same,glycan array binding signal (z-score),[32],-0.302
same,glycan array binding signal (z-score),[33],-0.49
same,glycan array binding signal (z-score),[34],-0.647
same,glycan array binding signal (z-score),[35],-0.524
